Assay results: PubChem BioAssay AID504339 (National Center for Advancing Translational Sciences (NCATS), 2011)
Screen size: about 390,000 compounds; about 17,000 (4.4%) were called active. The inconclusive results got no clear call from the source; some entries with a clear call stand among them for comparison. The call rests on the fitted dose curve; in most records, active means well fitted inhibition curve with a large enough effect; inconclusive means small, poorly fitted or top-dose-only effect; inactive means no such curve, though single readings can be large or run the other way. Where the call is inconclusive, the potency comes from a doubtful curve fit.

Target: Lysine-specific demethylase 4A (Homo sapiens) (UniProt O75164)
UniProt O75164, sequence (O75164 whole entry, looked up, the tested form may be a part): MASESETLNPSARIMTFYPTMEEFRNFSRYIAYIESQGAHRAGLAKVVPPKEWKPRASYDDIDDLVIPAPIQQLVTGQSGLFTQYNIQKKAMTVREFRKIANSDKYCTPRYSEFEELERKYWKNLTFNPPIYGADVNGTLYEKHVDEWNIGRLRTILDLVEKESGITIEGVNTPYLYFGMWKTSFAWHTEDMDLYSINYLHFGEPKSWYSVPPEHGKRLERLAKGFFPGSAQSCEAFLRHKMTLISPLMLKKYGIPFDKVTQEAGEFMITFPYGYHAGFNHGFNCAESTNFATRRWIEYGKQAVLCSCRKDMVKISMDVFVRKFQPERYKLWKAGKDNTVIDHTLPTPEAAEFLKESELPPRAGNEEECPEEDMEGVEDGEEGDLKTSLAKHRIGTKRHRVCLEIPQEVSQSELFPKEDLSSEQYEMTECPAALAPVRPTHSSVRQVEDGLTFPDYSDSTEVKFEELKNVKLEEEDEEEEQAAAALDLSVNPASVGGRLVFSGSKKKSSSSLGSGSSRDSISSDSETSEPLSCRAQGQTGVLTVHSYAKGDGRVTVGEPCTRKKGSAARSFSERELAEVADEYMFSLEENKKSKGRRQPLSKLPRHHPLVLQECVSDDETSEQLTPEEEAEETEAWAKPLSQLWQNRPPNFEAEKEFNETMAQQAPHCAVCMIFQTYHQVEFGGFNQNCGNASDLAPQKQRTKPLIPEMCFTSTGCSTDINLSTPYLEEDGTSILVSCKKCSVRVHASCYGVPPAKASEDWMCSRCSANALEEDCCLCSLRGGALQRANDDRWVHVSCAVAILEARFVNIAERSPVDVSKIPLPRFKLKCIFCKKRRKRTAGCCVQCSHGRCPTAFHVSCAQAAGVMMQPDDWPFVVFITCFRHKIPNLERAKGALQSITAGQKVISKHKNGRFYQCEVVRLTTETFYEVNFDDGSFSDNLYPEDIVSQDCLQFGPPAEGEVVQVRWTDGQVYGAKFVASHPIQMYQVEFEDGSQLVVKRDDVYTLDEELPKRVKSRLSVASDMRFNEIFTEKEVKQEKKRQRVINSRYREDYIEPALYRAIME
Test: qHTS Assay for Inhibitors of JMJD2A-Tudor Domain; further: nearly all actives have a fitted effect of over 50% in size
Settings: AlphaScreen JMJD2A-Tudor / H3K4me3 peptide binding; activity change, negative = inhibition: at 114 µM (top of the series)
On the % scale 0 is the no-effect control and ±100 the full control effect; potency means the concentration at half of the fitted maximal effect; tags describe the fitted curve by direction and shape.

Structure (SMILES)	Potency	activity change, negative = inhibition
COc1cccc(C(=O)Nc2ccc(-n3nncc3-c3ccccc3)cc2)c1OC	inconclusive: 56.2 µM [inhibitor, partial curve]	–
COc1cc2c(cc1OC)CN(Cc1cc(OC)c3c(c1)OCO3)CC2	active: 8.91 µM	–
COc1cc(C(=O)N/N=C/c2cn(Cc3ccccc3)c3ccccc23)ccc1O	inconclusive: 31.6 µM [inhibitor, full curve]	–
COc1ccc(NC(=O)CCCSc2ccccc2)cc1	–	inactive: 1.38%
CCOc1ccc(C2=NC(c3ccncc3)=Nc3ccc(C)cc3N2)cc1OCC	inconclusive: 56.2 µM [inhibitor, partial curve]	–
C=CCN1C(=O)/C(=C\c2ccc(OC(=O)c3ccco3)c(OC)c2)SC1=S	inconclusive: 25.1 µM [inhibitor, partial curve]	–
CCC1Nc2ncnc(N3CCCCC3)c2N(Cc2ccc(C)cc2)C1=O (centres undefined)	inconclusive: 79.4 µM [inhibitor, single point]	–
CCN1/C(=C(\O)c2ccccc2)C(=O)c2ccccc2S1(=O)=O	inconclusive: 79.4 µM [inhibitor, single point]	–
Cc1ccc(N2CCn3c2nc2c3c(=O)n(C/C=C/c3ccccc3)c(=O)n2C)cc1C	inconclusive: 35.5 µM [inhibitor, partial curve]	–
CCOc1cc(N2CCOCC2)c(OCC)cc1NC(C)C(=O)N1CCN(CC)CC1 (centres undefined)	active: 0.355 µM	–
COc1ccc2ccccc2c1/C=N/NC(=S)NCCN1CCOCC1	inconclusive: 56.2 µM [inhibitor, partial curve]	–
C/C(=N/O)c1c(O)c(C)c(-c2ccccc2)n(-c2ccccc2)c1=O	inconclusive: 2.82 µM [inhibitor, single point]	–
C=CCn1c(C)csc1=Nc1ccccc1C	active: 56.2 µM	–
CCOc1cccc(C2/C(=C(/O)c3ccc4c(c3)CC(C)O4)C(=O)C(=O)N2Cc2ccncc2)c1 (centres undefined)	active: 22.4 µM	–
CCOC(=O)c1c(C)[nH]c(C)c1C(=O)COC(=O)COc1ccc(Cl)c(C)c1	inconclusive: 44.7 µM [inhibitor, partial curve]	–
O=C(Nc1cccc(S(=O)(=O)NCc2ccco2)c1)c1cc(-c2ccc(F)cc2)nc2ccccc12	inconclusive: 31.6 µM [inhibitor, single point]	–
CC1CC(C)CN(CC(=O)Nc2ccc3c(c2)OCCO3)C1 (centres undefined)	active: 0.891 µM	–
CCn1c2ccccc2c2nnc(N3CCN(c4cccc(Cl)c4)CC3)nc21	inconclusive: 56.2 µM [inhibitor, partial curve]	–
FC(F)(F)c1cc(N2CCOCC2)nc(-c2ccccc2)n1	inconclusive: 35.5 µM [inhibitor, single point]	–
O=C(NNC(=O)c1ccc(-c2ccccc2)cc1)c1ccccc1	–	inactive: -28.1%
O=C(CSc1nnc(-c2ccc(O)cc2)n1Cc1ccco1)c1ccccc1	–	inactive: -10%
Cc1ccc(-n2c(C)cc(C3=NNC(=NC4CC4)SC3)c2C)cc1C	active: 50.1 µM	–
O=C(C1CCN(Cc2ccc(F)cc2)CC1)N1CCN(C/C=C/c2ccccc2)CC1	active: 20 µM	–

Structure (SMILES)	Potency	activity change, negative = inhibition
S=C(Nc1ccc2nccnc2c1)N1CCOCC1	–	inactive: -12%
Cc1ccc(NC(=O)CSC2=C(C#N)C(c3ccco3)C3=C(CCCC3=O)N2)cc1 (centres undefined)	inconclusive: 70.8 µM [inhibitor, single point]	–
O=C(NC(Nc1ncc(S(=O)(=O)c2ccc([N+](=O)[O-])cc2)s1)(C(F)(F)F)C(F)(F)F)c1ccc(Cl)cc1	inconclusive: 31.6 µM [inhibitor, partial curve]	–
Cc1cccc(-n2cc(CN3CCN(Cc4nccn4C)CC3)c(-c3cccc(F)c3)n2)c1	inconclusive: 39.8 µM [inhibitor, partial curve]	–
CCCCN1C(=O)C(=O)N(CC(=O)N2N=C3/C(=C/c4ccco4)CCCC3C2c2ccco2)C1=O (centres undefined)	inconclusive: 39.8 µM [inhibitor, partial curve]	–
Cc1ccc2sc(N(Cc3cccnc3)C(=O)Cc3ccccc3)nc2c1C	–	inactive: -2.6%
O=C(N/N=C/c1cccc(Br)c1)c1ccc(N2CCCC2=O)cc1	active: 56.2 µM	–
CCC(C(=O)NCc1ccco1)N(C(=O)CNS(=O)(=O)c1ccccc1)c1ccc(OC)cc1 (centres undefined)	inconclusive: 100 µM [inhibitor, partial curve]	–
COc1ccc(C(CNC(=O)c2ccco2)N2CCCC2)cc1 (centres undefined)	–	inactive: -4.05%
CC(C)C[C@H]1CNC(=S)N1CC1CCCN1C[C@H](CC(C)C)N1C[C@H](Cc2ccc(O)cc2)N(CC2CCCCC2)C1=S (some centres undefined)	inconclusive: 28.2 µM [inhibitor, partial curve]	–
CCC(=O)Nc1ccc2nc(C3CC3)n(Cc3ccc(C(C)(C)C)cc3)c(=O)c2c1	inconclusive: 14.1 µM [inhibitor, partial curve, poor fit]	–
O=C(COC(=O)c1ccccc1)Nc1ncc([N+](=O)[O-])s1	active: 20 µM	–
COC(=O)C1=C(C)N(Cc2ccccc2)C(=NCCCCO)N[C@H]1CCc1ccccc1	inconclusive: 20 µM [inhibitor, single point]	–
C/C(N)=C(/C#N)C(=O)CSc1nc2ccccc2c(=O)n1Cc1ccc(C)cc1	–	inactive: -19.6%
COc1ccc(-c2sc3cc(OC)c(OC)cc3c2-c2ccc(O)cc2)cc1	inconclusive: 56.2 µM [inhibitor, partial curve]	–
Nc1cc(C(F)(F)F)ccc1S(=O)(=O)Nc1cccc2c1NCCC2	inconclusive: 44.7 µM [inhibitor, partial curve]	–
O=C(COc1ccc(Cl)cc1)N(Cc1ccco1)Cc1ccco1	inconclusive: 56.2 µM [inhibitor, partial curve, poor fit]	–
C#CCOCCOCCOCCNc1nc(N2CCN(C(=O)[C@H]([C@@H](C)CC)n3cc([C@@H](N)CO)nn3)CC2)nc(N2CCN(C(=O)[C@H](CCCCN)n3cc([C@@H](N)CO)nn3)CC2)n1	active: 56.2 µM	–
C/C(=N\NC(=S)Nc1cccc(C)c1)c1cccc(N)c1	inconclusive: 50.1 µM [inhibitor, partial curve]	–
COc1ccc(OC)c(NC(=O)CSC2=Nc3ccccc3C3=NC(CCC(=O)NCc4ccccc4)C(=O)N23)c1 (centres undefined)	inconclusive: 50.1 µM [inhibitor, partial curve]	–
Cc1nc2ccn(Cc3cccs3)c(=O)c2cc1C(=O)NCc1ccc(Br)cc1	–	inactive: -22%
CCCC(=O)OCC(=O)Nc1ccc(N=Nc2ccccc2)cc1	inconclusive: 11.2 µM [inhibitor, partial curve]	–
Cc1cccc(C)c1OCc1nnc(SCC(=O)Nc2nccs2)o1	–	inactive: -24.6%

Structure (SMILES)	Potency	activity change, negative = inhibition
Cc1ccsc1/C=N/N1CCN(c2ccccn2)CC1	active: 63.1 µM	–
CCNc1ccc(C(=O)OCC)cc1NC(=O)c1cccc(N(C)C)c1	inconclusive: 56.2 µM [inhibitor, partial curve]	–
O=[N+]([O-])c1ccccc1/C=N/N1CCN(c2ccccn2)CC1	inconclusive: 17.8 µM [inhibitor, partial curve]	–
C=CCOc1c(Br)cc(CNc2nccs2)cc1OC	inconclusive: 20 µM [inhibitor, full curve]	–
CCn1c(SCC(=O)Nc2ccc3c(c2)OCCO3)nnc1-c1ccccn1	inconclusive: 50.1 µM [inhibitor, partial curve]	–
COc1ccccc1OCC(=O)NCC1CCCN(Cc2cnn(C(C)C)c2)C1 (centres undefined)	–	inactive: -18.4%
CC(C)c1c(C(=O)N/N=C/C=C/c2ccccc2)nnn1-c1nonc1N	–	inactive: 18.3%
COc1cc(C)c(C)cc1S(=O)(=O)n1c(C)nc2ccccc21	inconclusive: 25.1 µM [inhibitor, full curve]	–
COc1cc(Cl)c(C)cc1NCC(=O)Nc1cccc(S(=O)(=O)N2CCCC2)c1	inconclusive: 0.631 µM [inhibitor, full curve]	–
CC(C)Oc1ccc(CN2CCc3nc(Nc4ccc5c(c4)OCCO5)ncc3C2)cc1	active: 31.6 µM	–
Oc1ccc(-c2[nH]ncc2-c2ccc(Cl)cc2)c(O)c1	inconclusive: 56.2 µM [inhibitor, partial curve]	–
O=C(CSc1ccc(-c2cccs2)nn1)Nc1ccccc1	inactive	–
COc1cc(C(=S)N2CCOCC2)ccc1OS(=O)(=O)c1ccc(C)cc1	–	inactive: -9.29%
COc1cccc(CNc2nc3ccccc3c3nc(-c4cccc(C)c4)nn23)c1	–	inactive: 1.45%
O=S(=O)(c1ccc(S(=O)(=O)n2cnc3ccccc32)cc1)N1CCCCCC1	inconclusive: 89.1 µM [inhibitor, partial curve]	–
CCOC(=O)CNC(=S)N(Cc1ccccc1)Cc1cccnc1	inconclusive: 79.4 µM [inhibitor, partial curve]	–
CCCc1nnc(NC(=O)CN2C(=O)c3ccccc3C2=O)s1	inconclusive: 89.1 µM [inhibitor, single point]	–
COc1ccc(Cn2nnnc2C(c2ccccn2)N2CCN(c3cc(Cl)ccc3C)CC2)cc1 (centres undefined)	inconclusive: 44.7 µM [inhibitor, partial curve]	–
COc1ccccc1N1CCN(C(CNS(=O)(=O)c2ccc(C)cc2)c2cccnc2)CC1 (centres undefined)	inconclusive: 89.1 µM [inhibitor, single point]	–
Cc1ccnc(Nc2nc(-c3ccc(O)cc3O)cs2)c1	inconclusive: 56.2 µM [inhibitor, partial curve]	–
Cc1ccc(OCc2cc(C(=O)N(C)Cc3cnn(-c4ccccc4C)c3)no2)cn1	–	inactive: -23.3%
O=C(CC1N=C2c3ccccc3N=C(SCc3ccc(F)cc3)N2C1=O)NC1CCCCC1 (centres undefined)	–	inactive: -19.7%
Cc1ccc2c(Cl)c(C(=O)NCCCn3ccnc3)sc2c1	–	inactive: -35.4%
